Measurements reported in PubChem BioAssay AID624296 (National Center for Advancing Translational Sciences (NCATS), 2012).
The campaign covered roughly 350,000 compounds. About 9,900 (2.8%) were called active. The inconclusive results got no clear call from the source; some entries with a clear call stand among them for comparison. The call rests on the fitted dose curve; in most records, active means well fitted activation curve with a large enough effect; inconclusive means small, poorly fitted or top-dose-only effect; inactive means no such curve, though single readings can be large or run the other way. No potency is given beside an inconclusive call; the fits are too rough.

Assay: A quantitative high throughput screen for small molecules that induce DNA re-replication in MCF 10a normal breast cells. Further: nearly all actives have a fitted effect of over 50% in size. On activity, positive = re-replication: % of control where 0% means no effect.
Settings: MCF 10A DNA re-replication, Hoechst nuclear intensity, 48 h; activity, positive = re-replication: at 46.1 µM (top of the series)
Potency means the concentration at half of the fitted maximal effect; tags describe the fitted curve by direction and shape.

Row | Compound | activity, positive = re-replication | Potency
1 | Cc1c(C(=O)NC(=S)Nc2ccc(NC(=O)c3cccs3)cc2)oc2ccccc12 | inactive: -0.863% | –
2 | CCCn1nc(C(=O)Nc2nc(-c3ccccn3)cs2)c2ccccc2c1=O | – | active: 23.1 µM
3 | CCOC(=O)c1nc(Nc2cccc(C)c2)c2ccccc2n1 | inactive: -1.99% | –
4 | Cc1cc(NC2CCCCC2)nc(NCc2ccccc2)n1 | – | inconclusive [activator, single point]
5 | CCOc1ccc(N(CC(=O)Nc2cccc(F)c2)S(=O)(=O)c2c(C)noc2C)cc1 | – | inconclusive [activator, single point]
6 | Cc1ccc2occ(/C=N/NC(=O)c3ccccc3C)c(=O)c2c1 | – | inconclusive [activator, partial curve, poor fit]
7 | COc1ccc(Br)cc1CN(C)CC(=O)Nc1cccc(S(=O)(=O)N2CCCC2)c1 | – | inconclusive [activator, single point]
8 | Cc1nn2c(-c3cccc(NC(=O)CSc4nc5ccccc5o4)c3)nnc2c2ccccc12 | – | active: 10 µM
9 | COc1ccccc1CC(=O)N1CCN(S(=O)(=O)c2cccs2)CC1 | – | inconclusive [activator, full curve]
10 | CC1CCCC(C)N1C(=O)c1cc2ncc(CCCl)cn2n1 (stereo not given) | inactive: -4.9% | –
11 | CCN(CC)c1nc2ccccc2c(N)c1-c1ccccc1 | – | inconclusive [activator, partial curve, poor fit]
12 | CC1(C)C2CC[C@]3(C)C(CC=C4[C@@H]5C[C@@](C)(CO)[C@@H](O)C[C@]56C[C@@H](OC6=O)[C@]43C)[C@@]2(C)CC[C@@H]1O (stereo not given in full) | inactive: -7.38% | –
13 | Cc1ccc(C(=O)N/C(=C/c2ccc(N(C)C)cc2)C(=O)NCC2CCCO2)cc1 (stereo not given) | inactive: 5.17% | –
14 | CCN(C[C@H]1N[C@@](Cc2ccccc2)(C(=O)OC)[C@H]2C(=O)N(C)C(=O)[C@@H]12)S(=O)(=O)c1ccc(C(F)(F)F)cc1 | – | inconclusive [activator, single point]
15 | CC1CCN(S(=O)(=O)c2ccc3nc(-c4ccccn4)cc(C(=O)NCCN(C)Cc4ccccc4)c3c2)CC1 | – | active: 0.731 µM
16 | O=C(NCc1ccc2c(c1)OCO2)C1CC(c2ccccc2O)=NO1 (stereo not given) | – | inconclusive [activator, single point]
17 | Cc1cc(C)c2c(c1)N[C@H](c1cccs1)[C@@H]1CCO[C@H]21 | – | inconclusive [activator, partial curve, poor fit]
18 | Cc1cc(=O)oc2cc(OCC(=O)NC3CCCCC3)c(Cl)cc12 | inactive: -12.7% | –
19 | Fc1ccc(NC(=S)Nc2ccc(Cl)cc2Cl)cc1 | inactive: 19.7% | –
20 | O=C1c2ccccc2C(=O)N1CCc1csc(-c2cccc(Cl)c2)n1 | – | inconclusive [activator, partial curve, poor fit]
21 | CCOc1ccc2nc(N3CCCN(C(=O)Nc4ccccc4C)CC3)c(C#N)cc2c1 | – | active: 16.4 µM
22 | CCCC1=C(C(=O)OCC)C(c2ccc(NC(C)=O)cc2)NC(=O)N1 (stereo not given) | – | inconclusive [activator, partial curve]
23 | Cc1ccc(CNC(=O)c2cc3c(=O)n4ccccc4nc3n(CC3CCCO3)c2=N)cc1 (stereo not given) | – | active: 2.06 µM
24 | Cc1ccc2nc(SCC(=O)N3CCCC3)nc(=O)n2c1 | inactive: 3.68% | –

Row | Compound | activity, positive = re-replication | Potency
25 | Cc1cc(NC(c2cccnc2)c2ccc3cccnc3c2O)no1 (stereo not given) | – | active: 10.3 µM
26 | O=C(c1ccc(Cl)c(S(=O)(=O)N2CCOCC2)c1)N1CCCCCC1 | – | inconclusive [activator, single point]
27 | Cc1cc(-c2cc(-c3ccc(Cl)cc3)nc(N)c2C#N)co1 | – | active: 2.59 µM
28 | Cc1ccc(S(=O)(=O)N2CCc3cc4c(cc3C2C)OCCCO4)cc1 (stereo not given) | – | inconclusive [activator, partial curve, poor fit]
29 | CCN(Cc1ccncc1)C(=O)c1ccc(C)c(S(=O)(=O)N2CCCCC2)c1 | – | inconclusive [activator, single point]
30 | O=C(NNC(=O)c1ccc(Br)cc1)c1ccncc1 | inactive: 12% | –
31 | Cc1cc(=O)oc(C)c1C(=O)N1CCN(c2ccc(F)cc2)CC1 | – | inconclusive [activator, single point]
32 | NC(=O)CC(NC(=O)Cc1ccc(Br)cc1)c1ccc(NCc2ccc(F)cc2)c([N+](=O)[O-])c1 (stereo not given) | inactive: -26.7% | –
33 | COCCNC(=O)c1cn(C)c(=O)c2cc(OC)c(OC)cc12 | inactive: 5.31% | –
34 | CC(=O)c1cnn(-c2nc3c(C)cccc3s2)c1C | – | inconclusive [activator, single point]
35 | O=S(=O)(Cc1ccccc1Cl)NCc1ccccc1 | – | inconclusive [activator, single point]
36 | CC(=O)[C@H]1[C@H](C#N)C[C@H]2[C@@H]3CC=C4C[C@@H](O)CC[C@]4(C)[C@H]3CC[C@@]21C | inactive: -4.53% | –
37 | CC(=O)C[C@H](O)CC(=O)[C@@H]1OC(=O)CCCCCCCCc2ccccc21 | inactive: 13.2% | –
38 | Cc1cc(C(=O)CN2C(=O)C(=O)N(Cc3ccco3)C2=O)c(C)n1CCc1ccc(F)cc1 | – | inconclusive [activator, full curve, poor fit]
39 | CCOC(=O)c1ccc(NC(=O)CCCN2C(=O)NC3(CCCC3)C2=O)cc1 | inactive: 0.291% | –
40 | Cc1c(C#N)c(NC(=O)CCl)n(Cc2ccc(F)cc2)c1C | – | inconclusive [activator, single point]
41 | CCOc1ccc(C(=O)NC2CCN(C(=O)Nc3ccccc3OC)CC2)cc1 | inactive: 0.507% | –
42 | O=C(NCCCn1ccnc1)C(=O)NCC(c1cccnc1)N1CCN(c2ccccc2)CC1 (stereo not given) | inactive: 2.24% | –
43 | COc1cc(OC)c(N(C)S(=O)(=O)c2cccc(C(=O)Nc3nc(C)cs3)c2)cc1Cl | inactive: 15.9% | –
44 | Cc1ccc(-c2nnc(Nc3ccc4c(c3)nc(C)n4C)c3ccccc23)cc1 | – | inconclusive [activator, single point]
45 | CCCOC(=O)/C(C(N)=NCc1ccccc1)=C(\O)OCCC | – | inconclusive [activator, single point]
46 | O=C(NC(=S)Nc1ccc(CN2CCOCC2)cc1)c1ccc(-c2ccc(Br)cc2)o1 | – | inconclusive [activator, partial curve, poor fit]
47 | Cc1ccsc1C1C(C#N)=C(N)N(N(C)C)C2=C1C(=O)CC(C)(C)C2 (stereo not given) | – | inconclusive [activator, partial curve, poor fit]
48 | COc1ccc(S(=O)(=O)N(C)c2ccc(C(=O)N3CCC(C(N)=O)CC3)cc2)cc1 | – | inconclusive [activator, partial curve, poor fit]

Row | Compound | activity, positive = re-replication | Potency
49 | CSc1ccc(S(=O)(=O)NCC(=O)OCC(=O)N(C)C2CCCCC2)cc1[N+](=O)[O-] | – | inconclusive [activator, single point]
50 | CC1CC(C)CN(S(=O)(=O)c2ccc3c(c2)oc(=O)n3CC(=O)NCc2cccnc2)C1 (stereo not given) | inactive: 7.76% | –
51 | CC(=O)N(NC(=O)c1ccccc1Cl)C1CC(=O)N(c2ccc(C)cc2)C1=O (stereo not given) | – | active: 16.4 µM
52 | COc1ccc(/C=C(/NC(=O)c2ccccc2)C(=O)N2CCCC2)cc1 | inactive: 0.66% | –
53 | CC1CCCC(NC(=O)C2N(CCCN3CCCC3)C(=O)C3C(C(=O)Nc4cccc(Cl)c4)C4C=CC32O4)C1C (stereo not given) | – | inconclusive [activator, single point]
54 | O=C(NCC(=O)N(c1cccnc1)C(C(=O)NC1CCCCC1)c1ccccc1)c1ccco1 (stereo not given) | – | inconclusive [activator, single point]
55 | OC(CCN1CCCCC1)(c1ccccc1)c1ccccc1 | – | inactive
56 | Cc1c(Cc2ccccc2)c(NCCCO)n2c(nc3ccccc32)c1C#N | – | inconclusive [activator, single point]
57 | OC(CNC1CCCCC1)COCCOc1ccc(Br)cc1 (stereo not given) | – | active: 16.4 µM
58 | COc1ccc(N(CC(=O)Nc2ccc(OC)cc2OC)S(=O)(=O)c2ccccc2)cc1 | – | inconclusive [activator, single point]
59 | CCOC(=O)c1c(C)c(C(=O)NCc2cccs2)c(C)n1CC | inactive: -1.68% | –
60 | COc1ccc([C@@H]2CC=C(C(=O)O)CN2S(=O)(=O)c2ccc(Cl)cc2)cc1 | – | inconclusive [activator, single point]
61 | CCC(C)Sc1nc2ccccc2c(=O)[nH]1 (stereo not given) | – | inconclusive [activator, partial curve, poor fit]
62 | CCn1c(=O)cc(SCC(=O)Nc2ccc(C)cn2)c2ccccc21 | – | active: 10.3 µM
63 | Cc1ccc(-c2cc(C(=O)Nc3ccccn3)c3ccccc3n2)o1 | – | inconclusive [activator, single point]
64 | COCCN(Cc1cc2cc(C)ccc2n2nnnc12)C(=S)Nc1ccc(OC)cc1 | inactive: 21.4% | –
65 | Cc1ccc(C(=O)NC(=C(Cl)Cl)S(=O)(=O)c2ccc(Cl)cc2)cc1 | – | inconclusive [activator, full curve, poor fit]
66 | CC1CCN(S(=O)(=O)c2ccc3c(c2)c(=O)c(C(=O)NC2CCCC2)cn3C)CC1 | inactive: -1.51% | –
67 | O=S(=O)(c1cccs1)N1CCN(c2ccccc2F)CC1 | – | inconclusive [activator, single point]
68 | Cc1ccc(NC(=O)c2ccc(Oc3ncccn3)cc2)cc1 | – | inconclusive [activator, single point]
69 | C/C(=N\NC(=O)Cn1ccc(C(F)(F)F)n1)c1ccc(N2CCOCC2)cc1 | inactive: -8.67% | –
70 | NC(=O)C1CCCN(C(=O)CCc2nnc(C3(c4ccc(Cl)cc4)CCC3)o2)C1 (stereo not given) | – | inconclusive [activator, partial curve]
